# Results: PMC4336329 (PLoS ONE, 2015)
# Hit rate of the full screen: of about 310,000 compounds, about 2,200 (0.71%) showed an effect of 50% or more. Effects have a minus sign here. Some of the results follow.
# Molecular target: human ether-à-go-go-related gene (hERG) potassium channel (human, UniProt Q12809)
# Test: primary screen, population patch clamp on CHO cells stably expressing hERG
# Sequence of human ether-à-go-go-related gene (hERG) potassium channel (Q12809 whole entry, looked up): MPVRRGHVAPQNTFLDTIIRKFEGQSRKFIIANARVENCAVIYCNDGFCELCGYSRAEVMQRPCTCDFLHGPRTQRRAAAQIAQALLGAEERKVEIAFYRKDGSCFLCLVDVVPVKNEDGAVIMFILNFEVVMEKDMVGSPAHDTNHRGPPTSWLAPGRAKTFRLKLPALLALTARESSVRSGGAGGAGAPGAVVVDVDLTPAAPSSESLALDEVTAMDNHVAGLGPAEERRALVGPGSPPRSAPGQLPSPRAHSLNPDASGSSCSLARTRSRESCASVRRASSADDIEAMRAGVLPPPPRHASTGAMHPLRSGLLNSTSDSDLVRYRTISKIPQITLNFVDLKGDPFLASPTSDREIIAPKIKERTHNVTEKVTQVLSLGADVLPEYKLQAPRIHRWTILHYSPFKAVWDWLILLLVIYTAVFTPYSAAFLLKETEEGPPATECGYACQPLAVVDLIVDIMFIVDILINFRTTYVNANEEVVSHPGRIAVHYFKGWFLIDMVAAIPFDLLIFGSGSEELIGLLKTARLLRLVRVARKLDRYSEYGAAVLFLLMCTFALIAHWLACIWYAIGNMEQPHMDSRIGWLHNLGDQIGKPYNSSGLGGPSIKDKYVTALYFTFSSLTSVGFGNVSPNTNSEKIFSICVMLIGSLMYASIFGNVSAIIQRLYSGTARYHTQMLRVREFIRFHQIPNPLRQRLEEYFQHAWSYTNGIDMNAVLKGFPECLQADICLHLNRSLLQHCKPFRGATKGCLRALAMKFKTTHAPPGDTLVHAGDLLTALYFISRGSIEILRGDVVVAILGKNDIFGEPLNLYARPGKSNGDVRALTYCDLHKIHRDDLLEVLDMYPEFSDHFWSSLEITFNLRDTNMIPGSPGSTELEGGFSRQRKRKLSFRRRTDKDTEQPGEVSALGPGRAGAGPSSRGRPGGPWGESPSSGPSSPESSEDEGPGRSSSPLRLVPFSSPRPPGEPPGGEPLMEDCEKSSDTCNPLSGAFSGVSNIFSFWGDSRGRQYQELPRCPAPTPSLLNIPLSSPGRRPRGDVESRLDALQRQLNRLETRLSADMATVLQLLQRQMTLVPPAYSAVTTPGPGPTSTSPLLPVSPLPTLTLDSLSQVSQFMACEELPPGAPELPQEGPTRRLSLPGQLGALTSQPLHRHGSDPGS
row,SMILES,"hERG current change (%, negative = inhibition) at 1uM [%]"
1,COc1ccc(NC(=S)N2CCOCC2)c(OC)c1,10.1
2,Cn1c(SCC(=O)N2CCN(S(=O)(=O)c3ccccc3)CC2)nc2ccccc21,6.74
3,CC(=O)NC(Cc1ccc(F)cc1)C(=O)NC1CCN(c2ncccc2[N+](=O)[O-])CC1 (stereo not drawn),18
4,CC(C)OCCCNC(=O)CCC(=O)NNc1nc2ccccc2c2nc(-c3ccccc3)nn12,1.31
5,FC(F)(F)c1cccc(OCC2CNC(=S)O2)c1 (stereo not drawn),2.22
6,CCN(CC)S(=O)(=O)c1cccc(C(=O)Nc2cc3oc4ccccc4c3cc2OC)c1,10.4
7,COc1ccc(NC(C)=O)cc1NC(C)C(=O)Nc1cccc(S(=O)(=O)N2CCOCC2)c1 (stereo not drawn),9.65
8,Cc1cccc(C)c1NC(=O)CCCCCNS(=O)(=O)c1ccccc1,8.52
9,COc1cc(C(=O)OCCc2c(C)nc3nc[nH]n3c2=O)cc(OC)c1OC,20.4
10,c1ccc(P(c2ccccn2)c2ccccn2)cc1,12.2
11,CC(=O)c1c(C)oc2ccc(OCc3ccccc3)cc12,3.03
12,Oc1oc(-c2ccccc2)nc1C=NCc1ccccc1,16.8
13,O=C(COC(=O)c1cccc(S(=O)(=O)N2CCOCC2)c1)Nc1nc(-c2ccccc2Cl)cs1,-3.93
14,CNCC(=O)Nc1ccc(OC(F)(F)F)cc1.Cl,2.4
15,O=C(Cc1ccccc1)NCC(=O)OCC(=O)c1ccc(Cl)cc1,11.8
16,CN(C)S(=O)(=O)c1cccc(CNCC2COc3ccccc3O2)c1.O=C(O)C(=O)O (stereo not drawn),-0.379
17,CNC(=S)Nc1cc(Cl)ccc1Oc1ccccc1,0.574
18,COC(=O)C1=C(CCc2ccccc2)NC(=O)NC1c1ccc(Cl)cc1 (stereo not drawn),8.42
19,O=C(NC1CN2CCC1CC2)c1cccc(Cl)c1 (stereo not drawn),5.21
20,CCCCN=Cc1sc2ccc(OCC)cc2c1O,12.7
21,COc1ccc([C@H]2[C@H](C(=O)C(C)(C)C)N3N=Cc4ccccc4C3[C@]23N=C(c2ccccc2)OC3=O)cc1OC (stereo partly drawn),7.61
22,CC1=NCCN1CCNC(=O)Nc1ccc(F)cc1,14.9
23,c1ccc(N2CCN(Cc3cn4cccnc4n3)CC2)cc1,11.3
24,CCC(=O)N1CCc2cc(S(=O)(=O)CCC(=O)NCc3ccc(OC)cc3)ccc21,9.06
